# The list shows a part of the results. Most values come without repeats; read them as rough.
# System: RPMI7951
# Assay: cell count relative to DMSO control; melanoma cells; higher = more viable cells
# Settings: library dose: low library concentration; 72 h
# 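Note: cell number obtained by counting DAPI-stained nuclei in high-throughput microscope images with image analysis software, screen run in 1,536-well plates.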
row,Structure (SMILES),cell count
1,"Cn1cc(C2=C(c3cn(C4CCN(Cc5ccccn5)CC4)c4ccccc34)C(=O)NC2=O)c2ccccc21 [Enzastaurin] + CO[C@H]1C[C@@H]2CC[C@@H](C)[C@@](O)(O2)C(=O)C(=O)N2CCCC[C@H]2C(=O)O[C@H]([C@H](C)C[C@@H]2CC[C@@H](OCCO)[C@H](OC)C2)CC(=O)[C@H](C)/C=C(\C)[C@@H](O)[C@@H](OC)C(=O)[C@H](C)C[C@H](C)/C=C/C=C/C=C/1C [everolimus] (first compound 0.8 µM, partner dose 0.02 µM)",76%
2,"C[C@]12O[C@H](C[C@]1(O)CO)n1c3ccccc3c3c4c(c5c6ccccc6n2c5c31)CNC4=O [Lestaurtinib] + Nc1cccc2c1CN(C1CCC(=O)NC1=O)C2=O [lenalidomide] (first compound 0.004 µM, partner dose 1 µM)",88.9%
3,"C[C@]12O[C@H](C[C@]1(O)CO)n1c3ccccc3c3c4c(c5c6ccccc6n2c5c31)CNC4=O [Lestaurtinib] + CN(c1ncccc1CNc1nc(Nc2ccc3c(c2)CC(=O)N3)ncc1C(F)(F)F)S(C)(=O)=O [PF562271] (first compound 0.004 µM, partner dose 0.08 µM)",82.9%
4,"C[C@]12O[C@H](C[C@]1(O)CO)n1c3ccccc3c3c4c(c5c6ccccc6n2c5c31)CNC4=O [Lestaurtinib] + CC(=O)O[C@@]12CO[C@@H]1C[C@H](O)[C@@]1(C)C(=O)[C@H](O)C3=C(C)[C@@H](OC(=O)[C@H](O)[C@@H](NC(=O)OC(C)(C)C)c4ccccc4)C[C@@](O)([C@@H](OC(=O)c4ccccc4)[C@H]21)C3(C)C [Docetaxel] (first compound 0.004 µM, partner dose 0.0001 µM)",60.5%
5,"C[As](C)SC[C@H](NC(=O)CC[C@H](N)C(=O)O)C(=O)NCC(=O)O [Darinaparsin] + O=C(Nc1ccccc1)c1cc([N+](=O)[O-])ccc1Cl [GW9662] (first compound 0.4 µM, partner dose 2 µM)",108%
6,"C[As](C)SC[C@H](NC(=O)CC[C@H](N)C(=O)O)C(=O)NCC(=O)O [Darinaparsin] + Cc1cc(SCc2sc(-c3ccc(C(F)(F)F)c(F)c3)nc2C)ccc1OCC(=O)O [GW0742] (first compound 0.4 µM, partner dose 2 µM)",105%
7,"C[C@]12O[C@H](C[C@]1(O)CO)n1c3ccccc3c3c4c(c5c6ccccc6n2c5c31)CNC4=O [Lestaurtinib] + CCCS(=O)(=O)Nc1ccc(F)c(C(=O)c2c[nH]c3ncc(Cl)cc23)c1F [PLX4720] (first compound 0.004 µM, partner dose 0.08 µM)",108%
8,"C[C@]12O[C@H](C[C@]1(O)CO)n1c3ccccc3c3c4c(c5c6ccccc6n2c5c31)CNC4=O [Lestaurtinib] + O=C(O)[C@@H]1[O][Sb](=[O])([O][Sb]2(=[O])[O][C@H]([C@H](O)CO)[C@H](O)[C@H](C(=O)O)[O]2)[O][C@H]([C@H](O)CO)[C@@H]1O [stibogluconate] (first compound 0.004 µM, partner dose 2 µM)",119%
9,"C[C@]12O[C@H](C[C@]1(O)CO)n1c3ccccc3c3c4c(c5c6ccccc6n2c5c31)CNC4=O [Lestaurtinib] + O=C(O)c1ccc2c(c1)nc(Nc1cccc(Cl)c1)c1ccncc12 [CX4945] (first compound 0.004 µM, partner dose 0.4 µM)",97.1%
10,"C[As](C)SC[C@H](NC(=O)CC[C@H](N)C(=O)O)C(=O)NCC(=O)O [Darinaparsin] + O=C1NC(=O)/C(=C/c2ccc(-c3ccc(F)cc3O)o2)S1 [AS252424] (first compound 0.4 µM, partner dose 1 µM)",110%
11,"C[C@]12O[C@H](C[C@]1(O)CO)n1c3ccccc3c3c4c(c5c6ccccc6n2c5c31)CNC4=O [Lestaurtinib] + CC(C)C[C@H](NC(=O)[C@H](Cc1ccccc1)NC(=O)c1cnccn1)B(O)O [Bortezomib] (first compound 0.004 µM, partner dose 0.001 µM)",89.6%
12,"C[C@]12O[C@H](C[C@]1(O)CO)n1c3ccccc3c3c4c(c5c6ccccc6n2c5c31)CNC4=O [Lestaurtinib] + N.N.[Cl][Pt][Cl] [cisplatin] (first compound 0.004 µM, partner dose 1.6 µM)",119%
13,"C[C@]12O[C@H](C[C@]1(O)CO)n1c3ccccc3c3c4c(c5c6ccccc6n2c5c31)CNC4=O [Lestaurtinib] + NC1(c2ccc(-c3nc4ccn5c(=O)[nH]nc5c4cc3-c3ccccc3)cc2)CCC1 [MK2206] (first compound 0.004 µM, partner dose 0.4 µM)",78%
14,"C[C@]12O[C@H](C[C@]1(O)CO)n1c3ccccc3c3c4c(c5c6ccccc6n2c5c31)CNC4=O [Lestaurtinib] + C[C@]1(O)C[C@@H](c2nc(-c3ccc4ccc(-c5ccccc5)nc4c3)c3c(N)nccn32)C1 [OSI906] (first compound 0.004 µM, partner dose 0.4 µM)",98.3%
15,"C[C@]12O[C@H](C[C@]1(O)CO)n1c3ccccc3c3c4c(c5c6ccccc6n2c5c31)CNC4=O [Lestaurtinib] + C=C(c1ccc(C(=O)O)cc1)c1cc2c(cc1C)C(C)(C)CCC2(C)C [Bexarotene] (first compound 0.004 µM, partner dose 2 µM)",80.1%
16,"C[C@]12O[C@H](C[C@]1(O)CO)n1c3ccccc3c3c4c(c5c6ccccc6n2c5c31)CNC4=O [Lestaurtinib] + CN1CCN(c2ccc3nc(-c4c(N)c5c(F)cccc5[nH]c4=O)[nH]c3c2)CC1 [Dovitinib] (first compound 0.004 µM, partner dose 0.1 µM)",106%
17,"C[C@]12O[C@H](C[C@]1(O)CO)n1c3ccccc3c3c4c(c5c6ccccc6n2c5c31)CNC4=O [Lestaurtinib] + CCCCCCCCc1ccc(CCC(N)(CO)CO)cc1 [fingolimod] (first compound 0.004 µM, partner dose 2 µM)",98.3%
18,"C[C@]12O[C@H](C[C@]1(O)CO)n1c3ccccc3c3c4c(c5c6ccccc6n2c5c31)CNC4=O [Lestaurtinib] + CNC(=O)c1cc(Oc2ccc(NC(=O)Nc3ccc(Cl)c(C(F)(F)F)c3)cc2)ccn1 [sorafenib] (first compound 0.004 µM, partner dose 0.4 µM)",100%
19,"N.N.[Cl][Pt][Cl] [cisplatin] + CO[C@H]1C[C@@H]2CC[C@@H](C)[C@@](O)(O2)C(=O)C(=O)N2CCCC[C@H]2C(=O)O[C@H]([C@H](C)C[C@@H]2CC[C@@H](OCCO)[C@H](OC)C2)CC(=O)[C@H](C)/C=C(\C)[C@@H](O)[C@@H](OC)C(=O)[C@H](C)C[C@H](C)/C=C/C=C/C=C/1C [everolimus] (first compound 1.6 µM, partner dose 0.02 µM)",83.5%
20,"C[C@]12O[C@H](C[C@]1(O)CO)n1c3ccccc3c3c4c(c5c6ccccc6n2c5c31)CNC4=O [Lestaurtinib] + C=CCNC1=C2C[C@@H](C)C[C@H](OC)[C@H](O)[C@@H](C)/C=C(\C)[C@H](OC(N)=O)[C@@H](OC)/C=C\C=C(/C)C(=O)NC(=CC1=O)C2=O [Tanespimycin] (first compound 0.004 µM, partner dose 0.002 µM)",101%
21,"C[C@]12O[C@H](C[C@]1(O)CO)n1c3ccccc3c3c4c(c5c6ccccc6n2c5c31)CNC4=O [Lestaurtinib] + COc1ccc(Cl)c(Nc2nc3ccccc3nc2NS(=O)(=O)c2cccc(NC(=O)C(C)(C)N)c2)c1 [XL147] (first compound 0.004 µM, partner dose 0.8 µM)",89.6%
22,"C[C@]12O[C@H](C[C@]1(O)CO)n1c3ccccc3c3c4c(c5c6ccccc6n2c5c31)CNC4=O [Lestaurtinib] + CCN(CC)CCNC(=O)c1c(C)[nH]c(/C=C2\C(=O)Nc3ccc(F)cc32)c1C [sunitinib] (first compound 0.004 µM, partner dose 0.4 µM)",97.4%
23,"C[C@]12O[C@H](C[C@]1(O)CO)n1c3ccccc3c3c4c(c5c6ccccc6n2c5c31)CNC4=O [Lestaurtinib] + CS(=O)(=O)c1ccc(C(=O)Nc2ccc(Cl)c(-c3ccccn3)c2)c(Cl)c1 [vismodegib] (first compound 0.004 µM, partner dose 1 µM)",98.8%
24,"C[As](C)SC[C@H](NC(=O)CC[C@H](N)C(=O)O)C(=O)NCC(=O)O [Darinaparsin] + Cn1cc(/C=C2\C(=O)Nc3cccnc32)c2ccccc21 [GW441756] (first compound 0.4 µM, partner dose 0.4 µM)",99.7%
25,"C[C@]12O[C@H](C[C@]1(O)CO)n1c3ccccc3c3c4c(c5c6ccccc6n2c5c31)CNC4=O [Lestaurtinib] + CC(=O)c1c(C)c2cnc(Nc3ccc(N4CCNCC4)cn3)nc2n(C2CCCC2)c1=O [palbociclib] (first compound 0.004 µM, partner dose 0.04 µM)",91.1%
26,"C[C@]12O[C@H](C[C@]1(O)CO)n1c3ccccc3c3c4c(c5c6ccccc6n2c5c31)CNC4=O [Lestaurtinib] + Nc1nc(F)nc2c1ncn2[C@@H]1O[C@H](CO)[C@@H](O)[C@@H]1O [fludarabine] (first compound 0.004 µM, partner dose 0.2 µM)",118%

# Reference: the supplement of paper PMC4604168 (melanoma cell lines)
